Data reported in publication PMC12136788.
This is one part of the list.

T1: UNK ZnF1-6 (called full-length) (human, UniProt Q9C0B0 30-357)
T1 sequence: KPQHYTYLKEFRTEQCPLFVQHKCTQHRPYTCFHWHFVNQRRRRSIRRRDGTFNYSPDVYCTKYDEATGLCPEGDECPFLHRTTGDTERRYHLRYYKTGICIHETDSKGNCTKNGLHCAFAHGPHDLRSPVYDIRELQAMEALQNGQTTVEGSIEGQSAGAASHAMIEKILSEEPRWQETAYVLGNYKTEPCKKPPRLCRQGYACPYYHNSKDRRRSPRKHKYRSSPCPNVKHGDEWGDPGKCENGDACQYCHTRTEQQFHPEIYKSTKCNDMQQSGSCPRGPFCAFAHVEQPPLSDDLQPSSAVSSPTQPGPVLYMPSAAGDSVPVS

B1: chr15:85581792:85581893:+|CDS|ENSG00000170776|unk|FALSE|bound_elsewhere (ssRNA)
RNA: GGGAGUUCUACAGUCCGACGAUCUGCCCAGGACGCACCUCUGCCUAAGGGGGCAGACUUGAUAGAGGAGGCUGCCAGCCGUAUAGUGGAUGCUGUCAUCGAACAAGUCAAGGCCGCUGGAGCACUGCUUACUGAGGGGGAGGCCAACAGAGGAUUGAGCAUCA
B2: chr1:17067933:17068034:-|3pUTR|ENSG00000117115|msi1|FALSE|unique (ssRNA)
RNA: GGGAGUUCUACAGUCCGACGAUCACAUAAGGACCCUGGCCUACCCUCCAGCCCAACAGCCAGUUCUGGGUCAGCUGCCAACUUAGGGGUGGUUUGAUUAUCCCAUUGAAAUUCACCAGUGCCUUUGCCAAAGACCCUCUCAUUCAACAGAGGAUUGAGCAUCA
B3: chr3:49887309:49887562:-|CDS|ENSG00000164078|control|control|control (ssRNA)
RNA: GGGAGUUCUACAGUCCGACGAUCGGAGGCAGACCCAGCAGUGCGACCCACCUUCAGAGUACUAGUGGGGGAGGUGGAGCAGAUAGUGUCUGCACUGCUUGGGGACCAUUAUGUGCAGCUGCCAGCAACCUACAUGAACUUGGGCAACAGAGGAUUGAGCAUCA
B4: chr9:5123879:5124511:-|three_prime_utr|ENSG00000120210|control|control|control (ssRNA)
RNA: GGGAGUUCUACAGUCCGACGAUCCUGGUAAAUUGGAUUGCCAUAUGCAGAAGAAUGAAACUGGACCCAUAUUUAUCACCAUAUAGAAAAAUUAACUCGAUCGAUUACAGACUUAAAUGUAAGAUCUGAAACUAGAAAAAUACUCAACAGAGGAUUGAGCAUCA
B5: ENSG00000198589:be:win_7051|CDS|ENSG00000198589|bound_else_gene|NA|bound_elsewhere_windowed (ssRNA)
RNA: GGGAGUUCUACAGUCCGACGAUCCCUGAAUUUUAUUAUCUCCCUGAGAUGUUUGUCAACUUCAAUAAUUAUAAUCUUGGAGUGAUGGAUGAUGGGACAGUAGUGUCUGAUGUCGAACUUCCUCCUUGGGCCAAAACCUCAGAACAACAGAGGAUUGAGCAUCA
B6: chr2:210612109:210612263:+|CDS|ENSG00000021826|unk|total|mutant (ssRNA)
RNA: GGGAGUUCUACAGUCCGACGAUCUAUUGGUCGUACCUUUGAGGAGAGUUUCCAGAAAGCUUUACGGAUGUGCCACCCAUCUACCGAAGGUUUCACUCCCCGUCUCCCAAUGAACAAAGAAUGGCCAUCUAAUUCCGAUCUCCGCAACAGAGGAUUGAGCAUCA
B7: chr11:20156216:20156573:-|CDS|ENSG00000109851|control|control|control (ssRNA)
RNA: GGGAGUUCUACAGUCCGACGAUCAUCUGGUUCCAGAACCGACGCAUGAAAUGGCGGAACUCCAAGGAGCGCGAACUCCUGUCUAGCGGGGGCUGUCGCGAGCAGACCCUGCCCACCAAGCUCAAUCCGCACCCGGACCUCAGCCAACAGAGGAUUGAGCAUCA
B8: chr8:80637648:80637749:-|3pUTR|ENSG00000164684|unk|FALSE|unique (ssRNA)
RNA: GGGAGUUCUACAGUCCGACGAUCUGCGCUUAGCUGCAAAGUGCCUGUCAGCAGCUCCAGGCACCAACAAGGUGCCCUUUUAUUAGACAAUUCCUGCCCGAACAUAACCAUAUUGCAGAUGAAAAUUUUCAAUAGAGAAUGACACAACAGAGGAUUGAGCAUCA
B9: ENSG00000107863:be:win_1351|CDS|ENSG00000107863|bound_else_gene|NA|bound_elsewhere_windowed (ssRNA)
RNA: GGGAGUUCUACAGUCCGACGAUCGUCCAGAUACGGCAACGCAGUGUGUCCCAAGAAAGACUGGAAGAUUCUGUGCUAAUGAAGUAUUGUCCAAGAAGUGCAUCUCAAGGAGCACUGACGUCUCCAUCUGUUAGUUUUAGUAAUCAACAGAGGAUUGAGCAUCA
B10: chr12:56205560:56205676:-|3pUTR|ENSG00000181852|unk|FALSE|unique (ssRNA)
RNA: GGGAGUUCUACAGUCCGACGAUCCUCUUGUGGCACAGGCCAUAAUUGUUCCAUAGACCCCUCUCUAGCCCUGUGACUGUAGUUAGUUACUUUGAUAAUUUUCUUUGGCCAUUGUUUGUUUAUAUUUCACAAACUCCACCUACUCAACAGAGGAUUGAGCAUCA
B11: chr17:57106211:57106324:+|CDS|ENSG00000121057|unk|FALSE|unique (ssRNA)
RNA: GGGAGUUCUACAGUCCGACGAUCUCAUCCCAGGUGGUGGGGCCAGUGCAGGAGGAAGAGUAUGUAGCAGAGAAGUUGCCAAGUAGGUUCAUCGAGUCGGCUCACACAGAGCUGGCAAAGGACGAUGCGGCGCCAGCACCCCCACAACAGAGGAUUGAGCAUCA
B12: chr1:205084032:205084133:-|CDS|ENSG00000174529|msi1|total|mutant (ssRNA)
RNA: GGGAGUUCUACAGUCCGACGAUCGGAGACCGUCUGUGAGGUGGGCCCUGAUGGAGUGAGAAGGAAAUGUCAGACUCGGCGCUCCGAAUGUCUGACCAACUGGAUCUGUGGGAUGCUCCAUUUCACCAUUCUCAUUGGCAAGGACAACAGAGGAUUGAGCAUCA
B13: chr3:149172415:149172516:+|3pUTR|ENSG00000163755|unk|FALSE|unique (ssRNA)
RNA: GGGAGUUCUACAGUCCGACGAUCUUACCGUGUAGUGGUAACUAUUCACUUCUUAAUUUAUGACCUCAAUCAAUUUAAUUGUCUAGAAUGUAAAAAGUCUUUAAGACAUAAGAAUUCCUCAAAGAAGCCAUACAUUUUUUAAGGCAACAGAGGAUUGAGCAUCA
B14: chr6:109001311:109001429:-|CDS|ENSG00000080546|unk|FALSE|unique (ssRNA)
RNA: GGGAGUUCUACAGUCCGACGAUCUGCUGCUUUGGGCCGUUUGGAUAACAUUACGUUAGUGAUGGUUUUCCACCCACAAUAUUUAGAAAGUUUCUUAAAAACUCAGCACUAUCUACUGCAAAUGGAUGGGCCGUUACCCCUACACAACAGAGGAUUGAGCAUCA

The binders below were run against T1, UNK ZnF1-6 (called full-length) (assay: nsRBNS (natural sequence RNA bind-n-seq); RBNS binding buffer (assumed for nsRBNS): 25 mM Tris pH 7.5, 150 mM KCl, 3 mM MgCl2, 0.01% Triton X-100, 500 ug/ml BSA, 20 U/ml SUPERase-In, 4 C; UNK is unkempt and MSI1 is Musashi-1; names of the RNAs are library labels; protein concentration not given here; high values mean tight binding).

Row | Binder | binding signal
1 | B1 | 0.861 enrichment R
2 | B2 | 0.896 enrichment R
3 | B3 | 0.887 enrichment R
4 | B4 | 21.7 enrichment R
5 | B5 | 0.368 enrichment R
6 | B6 | 0.476 enrichment R
7 | B7 | 0.574 enrichment R
8 | B8 | 0.967 enrichment R
9 | B9 | 4.38 enrichment R
10 | B10 | 33.5 enrichment R
11 | B11 | 1.49 enrichment R
12 | B12 | 0.782 enrichment R
13 | B13 | 2.23 enrichment R
14 | B14 | 0.699 enrichment R
